The supplement of paper PMC10126150
Sequences with one replicate were seen in a single cluster, so their values are uncertain.

Test system: ATP
Assay: switch fluorescence ratio, 500 uM ATP over buffer (Cy3 cluster intensity, sum of 5 cycles each) (fold (ratio)); higher = stronger signal-on switching upon ATP binding; sequences stand for … in TCGTCGGCAGCGTCAGATGTGTATAAGAGACAGTTTTTTTTTTTTTTTTTTTTTTTTT…TC
Conditions: aptamer strand: ATP DNA aptamer (quencher-CACCTGGGGGAGTATTGCGGAGGAAGG + anchor), 100 nM annealed; ATP concentration: 500 uM; one replicate
Method in brief: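 Between each of five buffer/ATP cycles, the flow-cell was stripped with NaOH and re-annealed. Each cycle imaged Cy3-labelled switching-strand clusters, annealed to 100 nM quencher-labelled ATP aptamer on a modified Illumina MiSeq flow-cell, first in selection buffer and then after 15 min with 500 uM ATP at 22 °C. The fluorescence ratio is summed target-cycle over summed buffer-cycle Cy3 intensity per cluster, averaged per switch-domain sequence, with clusters outside 100-1000 RFU excluded.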
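Also: ATP exposure 15 min at 22 °C before imaging.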

Sequence	switch fluorescence ratio
AATGACCGCC	1.18
GTGGGAACAA	1.05
GAGTAATCTA	0.993
CACGGGAAGG	1.03
GAAGATTGTG	1
AAGAGTTGCG	1.07
AAGGCTTATG	0.993
ACCTATCGGC	1.04
AACACCCCCA	1.1
CTTCTGATGC	1.55
ATGGCACGAT	1.08
GAAAGGACAA	1.07
CCTTTTAAGT	1.44
CACCGGGTGG	1.41
CAGACAGTAC	1.98
TGTGCGGATT	1.04
ACCTGAAAG	1.04
GACCTCGGTC	1
GAGTCACCAC	1.09
GTCGCTTATA	1.05
TATAGGCTG	1.03
CCAGCGAAAG	1.06
GTGATTAACC	1.03
CCGCGGTCAA	2.53
GCGGGCTAGA	1.03

Sequence	switch fluorescence ratio
TGTTACTGGA	0.939
GAGCTTAGGT	1.01
CCCTAGTACG	1.04
ATGGGCGCCT	0.998
ACGACGATAG	0.949
GGCGACCCGG	1.04
TAGCTTCCG	1.34
TTGACGTTCG	1.18
CCTTGGTGGG	1.01
CCTTTGGGTT	0.974
GGATAGGCGG	1.06
AAGATTGTCT	1
GCGAATCATC	0.999
GACTCCTTGA	1.02
TGTCGGAGTA	0.987
ACGTCAGGAC	1.58
AGCTAGGCCT	1.02
AATAGTGCTG	1.02
TCCGTTCTTT	1.05
CCGCGTAATG	3.28
ATATGGTGGA	1.01
CAGTTTTGTC	1.07
CTCCTCCTCT	1.27
GGGCATTTAC	1.55
CACGGGGCTA	0.993

Sequence	switch fluorescence ratio
AGTGTCTCGC	1
ATATCAAAGG	0.996
ATCATGACCA	0.99
TATGTTCTTA	1.01
GTGCATTATT	1.03
GACGCTAGGC	2.88
CGCTTATGCC	1
CATGACGCTA	1.79
GAACTTGACT	1.03
CCCCTGAAGG	1.07
GGGTTTCTGG	1.07
ATTGACCTCG	1.01
GTTAAACGAT	0.982
GGTAATCTAC	1.06
ATATGATCAT	0.963
TGTCATTGCA	1.06
GAACTAACC	1.09
CTTTCTGGTG	1.15
TTGAGGGGAC	0.97
TGCAGGTACG	1.03
CTATTCGTGT	0.995
GAGCGATG	1.1
TCATTTGTAC	1.08
CTGAGGGCTT	1.01
AGGAGAGAGA	1.02

Sequence	switch fluorescence ratio
TCCACGGCGC	1.12
GGTCCGCGTC	0.98
GCTTAGGGGC	1
ACGGAGGTGT	1.09
GTAATCGTAG	0.927
TATTGATCAT	1
AAGGTTTAAC	1.04
TCGATGACCC	1.06
GGTTGTTGAC	0.969
TGGGGCTCAC	1.03
AGTTGACATG	1
GCGTTTCTGG	1.01
ACCAATTGG	1.01
ATCGGGCCTG	0.962
GCAGTACATA	1.1
CCGTTGGCGG	0.975
ACGTAGATTG	1
GACCCCCCA	1.4
GATGCGTTCC	1.7
GGTAGGATGG	0.962
GTGGGAGATG	0.996
TTACAGGTTT	1.02
GAAAGCCAGG	1.16
CTCGCCTTTT	1.07
GGCTGCACTG	1.02

Sequence	switch fluorescence ratio
TAATTCATAT	0.988
TTACTGTGTA	0.967
ATACATGTTG	1.07
AGCCGTTCGA	1.02
AGTCGGTCCG	0.955
TCAAAAAGCA	1
TATAAGGAT	1.02
TGTTTACGCA	1.57
TACCTAATTT	0.986
CACAGGGGCC	1.08
GACTAACTCG	1
TCCACTCTCC	1.2
GGGTCACCAA	1.04
ATAACGGCCG	0.97
CACATTGAG	0.987
AAGCGCAGGA	1.02
GCTGTTCGTT	0.982
TTACATGAGA	0.991
GAAGGGGCAC	0.973
GTGGGCGCTG	0.975
ACTAATCTGA	1.07
AATATTCTCG	1
GGTGCGGTTA	0.961
CGGTAGCCTG	0.931
AGTTTATAGG	1.04

Sequence	switch fluorescence ratio
ACGAAGGCTC	1.12
ATCAATTCGC	1.05
GGGTTGCTCC	1.01
TTACTTCCTG	1.02
GCCCATGGGG	1.12
TGCGCGGCTG	0.97
TCAATAAGGA	1
TCCACGAGGG	1.09
TTACGTTGCC	0.967
GCAGCCTAGG	1.01
ATGTAATTGT	1.01
CAAGTAGGAA	1.01
AGACATGGTA	1.03
GGAGACCGCG	0.967
TAGAGTTATA	0.998
TTGAGCGGA	0.978
GCGCTGGGGC	1.01
GGCATGGGGT	1.02
CTGTTATGGG	0.971
GGTGAAGTTT	0.939
AGATGCGCGC	1.03
ATTGGTAACT	1.01
CAGGACGTGC	1.06
TTTACCAATA	1.04
GGGGTAGTT	0.955

Sequence	switch fluorescence ratio
ATCAAAGTCG	1.02
GATGATTTCG	1.02
GGTATCTTTC	0.976
TAATTCGCTG	1.04
CGGGGTGAGC	0.954
GAAAATTAGA	0.995
ATGTTGCGCG	1.05
GTACGCCCAA	1.23
ATTAAGTCAC	1.11
AATAAACCAC	1.07
AACAGGCCGG	1.05
GGCAGTTATA	0.957
TGGTTGGATA	0.999
GCTTTGGAAA	0.946
CAGCCACCCC	1.21
GGCCTGATAC	1.5
TTACTGCTCT	1.01
AGGATAGTTT	0.98
CAAAAGTAGG	1.02
TTCGAAAGGG	1.02
ACGAAAAACG	1.02
GAGGCCGTC	1.03
TTCGGGTTGT	0.972
GTAACATATC	1.06
CGAAATGTGC	1.02

Sequence	switch fluorescence ratio
ATACTTCTGT	1.05
GCAGGAAAAG	1.11
GATGGATCT	1.03
GCCGCCCGGA	0.987
ATTGATGAGA	1.02
GATCCACTCA	1.05
CAGTTTCTGG	0.967
CTACTCCCGT	1.29
CGACCGTTTT	1.02
GCCGTACTTG	0.99
GGACCCAAGT	0.98
AAATTAATGC	1.05
AATTACATAT	1.01
TCGATTCCGT	1.01
AATGCGCCA	1.05
AAGAATCGCT	0.953
AACGGGGGG	0.956
ACCCGCGGTG	1.11
CGAGCTAAAC	2.7
ATATTATCGT	1
CGGCCTGGT	0.993
ATTGGGTCTT	0.992
TCGCTAGATT	1.02
GTCAACATAG	1.02
TGACGGGGAC	1.27
